# Measured values from the RNAGym collection of RNA variant scans (doi:10.1073/pnas.2313332121).
# Variants at the floor of the assay are shown more often than the library holds them.
# B1: TPR 5TU (parent)
# chain: GGAUCUUCUCGAUCUAACAAAAAAGACAAAUCUGCCACAAAGCUUGAGAGCAUCUUCGGAUGCAGAGGCGGCAGCCUUCGGUGGCGCGAUAGCGCCAACGUUCUCAACUAUGACACGCAAAACGCGUGCUCCGUUGAAUGGAGUUUAUCAUG
# Variants of: B1
# Test: polymerase ribozyme fitness, log enrichment relative to wild type (log ratio); higher = more active; in vitro selection for triplet polymerase activity
# Outline: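 One round of in vitro selection, in triplicate, was applied to PCR-built, transcribed mutant libraries of each subunit of a heterodimeric triplet polymerase ribozyme. The steps were annealing with a biotinylated primer, partner subunit and triplets, incubation frozen at −7 °C, gel excision of extended constructs, streptavidin-bead capture and RT-PCR. Fitness is the logarithm, base 2, of genotype enrichment over wild-type enrichment from inverse-variance-weighted replicate averages of Illumina-sequenced inputs and outputs, keeping genotypes with ≥10 input reads and ≥1 read per output.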
row,Variant,polymerase ribozyme fitness (log ratio)
1,A19U A24C A29U C57A G86A A98C C114G C132U G136A,≤ -4.2
2,C18U A20C U53A G70C,≤ -4.2
3,A19G G25A A49C C57U C63U C93A A97U C118G U139A,≤ -4.2
4,C18U A24U A49C A89U C93G G117A,≤ -4.2
5,A17U A28U C32A A52G C54A A73G G88A G143C,≤ -4.2
6,C18U C36A G59C C125U,≤ -4.2
7,A19G U33G A60C G62A C87U,≤ -4.2
8,A19U A23G A49C A66G G84U U102C C105G G126U,≤ -4.2
9,A17U A52C G80C C93A G94U U101G A142G,≤ -4.2
10,A19C C85G C99G G133U,≤ -4.2
11,C18G A26C A37C C93U C103G,≤ -4.2
12,A17U G58C C93A U127A,≤ -4.2
13,C18U G50C U53G C95A A120C,≤ -4.2
14,A19C A29C C35G G58U A73G G92C U148A,≤ -4.2
15,A17U C75G C93A U134A,≤ -4.2
16,A19U A29C A91C C93U U104G,≤ -4.2
17,C18G A21C A29U C85A C114A U145G,≤ -4.2
18,A17U C36G U61A C76G C103U A119U G141C,≤ -4.2
19,A17U G100U U134A U145G,≤ -4.2
20,A19C G50C U55A G68U C85U U127A,≤ -4.2
21,C18G A23U G48U C51U A52G G71C,≤ -4.2

row,Variant,polymerase ribozyme fitness (log ratio)
1,C18A A30G C38U G48C G71A A89U C96U A97C,≤ -4.2
2,A19C U56C C96U G133C,-2.22
3,A17U A28U C38U,≤ -4.2
4,C18G U44A A49C C96G U101G,≤ -4.2
5,C18U C96G U127C G143A,-4.17
6,C18G C85G,-2.28
7,C18G C85A,-1.49
8,A19U A41C G58A C85G,-2.71
9,C18U A37G U56A C87G C103U,≤ -4.2
10,C18G A23U G46C C57G C87G C103U A137U,≤ -4.2
11,A19C A37U G70U U144C,≤ -4.2
12,A17U A22U A24U C51G U56A A91G A97G A110U C116A,≤ -4.2
13,C18G A39G A40U G67A U90C A97G C99U,≤ -4.2
14,A17U C18U A20G C93U A115G,-4.19
15,C18U A28U U82A,≤ -4.2
16,A17U G25C,-4.13
17,C18U A97G C131G,-3.22
18,A19G A22U A28U A120G,≤ -4.2
19,C18G A21G C93U C149A,≤ -4.2
20,A19C C93A G94U G126U,≤ -4.2
